Source: the supplement of paper PMC8728848
Some of the results follow.

Key:
Assay in all cases: glycan array binding signal (z-score within array); higher = stronger binding
Details in all cases: glycan notation: IUPAC condensed, linker removed
Fuc(a1-2)Gal = molecular target: Fuc(a1-2)Gal
Method in brief: (§1)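 Arrays were curated from the Consortium for Functional Glycomics database, 3228 in total, and kept only where the protein sequence was available. Binding is expressed as a within-array Z-score. This score was averaged across arrays of the same protein sequence at different concentrations or buffers and across linkers, and negative values can be read as non-binding.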

Fuc(a1-2)Gal(b1-3)GalNAc = molecular target: Fuc(a1-2)Gal(b1-3)GalNAc
Method in brief: as §1

[1] = molecular target: Fuc(a1-2)Gal(b1-3)GalNAc(a1-3)[Fuc(a1-2)]Gal(b1-4)Glc
Method in brief: as §1

[2] = molecular target: Fuc(a1-2)Gal(b1-3)GalNAc(a1-3)[Fuc(a1-2)]Gal(b1-4)GlcNAc
Method in brief: as §1

[3] = molecular target: Fuc(a1-2)Gal(b1-3)GalNAc(b1-3)Gal
Method in brief: as §1

[4] = molecular target: Fuc(a1-2)Gal(b1-3)GalNAc(b1-3)Gal(a1-4)Gal(b1-4)Glc
Method in brief: as §1

[5] = molecular target: Fuc(a1-2)Gal(b1-3)GalNAc(b1-4)[Neu5Ac(a2-3)]Gal(b1-4)Glc
Method in brief: as §1

Fuc(a1-2)Gal(b1-3)GlcNAc = molecular target: Fuc(a1-2)Gal(b1-3)GlcNAc
Method in brief: as §1

[6] = molecular target: Fuc(a1-2)Gal(b1-3)GlcNAc(b1-2)Man(a1-3)[Fuc(a1-2)Gal(b1-3)GlcNAc(b1-2)Man(a1-6)]Man(b1-4)GlcNAc(b1-4)GlcNAc
Method in brief: as §1

[7] = molecular target: Fuc(a1-2)Gal(b1-3)GlcNAc(b1-2)Man(a1-3)[Fuc(a1-2)Gal(b1-3)GlcNAc(b1-2)Man(a1-6)]Man(b1-4)GlcNAc(b1-4)[Fuc(a1-6)]GlcNAc
Method in brief: as §1

[8] = molecular target: Fuc(a1-2)Gal(b1-3)GlcNAc(b1-3)Gal(b1-4)Glc
Method in brief: as §1

[9] = molecular target: Fuc(a1-2)Gal(b1-3)GlcNAc(b1-3)GalNAc
Method in brief: as §1

[10] = molecular target: Fuc(a1-2)Gal(b1-3)GlcNAc(b1-3)[Fuc(a1-2)Gal(b1-3)GlcNAc(b1-6)]GalNAc
Method in brief: as §1

[11] = molecular target: Fuc(a1-2)Gal(b1-3)GlcNAc(b1-3)[Gal(b1-4)GlcNAc(b1-6)]Gal(b1-4)Glc
Method in brief: as §1

[12] = molecular target: Fuc(a1-2)Gal(b1-3)GlcNAc(b1-3)[Neu5Ac(a2-6)Gal(b1-4)GlcNAc(b1-6)]Gal(b1-4)Glc
Method in brief: as §1

[13] = molecular target: Fuc(a1-2)Gal(b1-3)GlcNAc6S
Method in brief: as §1

[14] = molecular target: Fuc(a1-2)Gal(b1-3)[Fuc(a1-4)]GlcNAc
Method in brief: as §1

[15] = molecular target: Fuc(a1-2)Gal(b1-3)[Fuc(a1-4)]GlcNAc(b1-2)Man(a1-3)[Fuc(a1-2)Gal(b1-3)[Fuc(a1-4)]GlcNAc(b1-2)Man(a1-3)]Man(b1-4)GlcNAc(b1-4)GlcNAc
Method in brief: as §1

[16] = molecular target: Fuc(a1-2)Gal(b1-3)[Fuc(a1-4)]GlcNAc(b1-2)Man(a1-3)[Fuc(a1-2)Gal(b1-3)[Fuc(a1-4)]GlcNAc(b1-2)Man(a1-6)]Man(b1-4)GlcNAc(b1-4)[Fuc(a1-6)]GlcNAc(b1-4)[Fuc(a1-6)]GlcNAc
Method in brief: as §1

[17] = molecular target: Fuc(a1-2)Gal(b1-3)[Fuc(a1-4)]GlcNAc(b1-3)[Fuc(a1-3)[Gal(b1-4)]GlcNAc(b1-6)]Gal(b1-4)Glc
Method in brief: as §1

[18] = molecular target: Fuc(a1-2)Gal(b1-3)[Fuc(a1-4)]GlcNAc(b1-3)[Gal(b1-4)GlcNAc(b1-6)]Gal(b1-4)Glc
Method in brief: as §1

[19] = molecular target: Fuc(a1-2)Gal(b1-4)Fuc(a1-3)]GlcNAc(b1-2)Man(a1-3)[Fuc(a1-2)Gal(b1-4)[Fuc(a1-3)]GlcNAc(b1-2)Man(a1-6)]Man(b1-4)GlcNAc(b1-4)GlcNAc
Method in brief: as §1

Fuc(a1-2)Gal(b1-4)Glc = molecular target: Fuc(a1-2)Gal(b1-4)Glc
Method in brief: as §1

Fuc(a1-2)Gal(b1-4)Glc6S = molecular target: Fuc(a1-2)Gal(b1-4)Glc6S
Method in brief: as §1

Fuc(a1-2)Gal(b1-4)GlcNAc = molecular target: Fuc(a1-2)Gal(b1-4)GlcNAc
Method in brief: as §1

[20] = molecular target: Fuc(a1-2)Gal(b1-4)GlcNAc(b1-2)Man
Method in brief: as §1

[21] = molecular target: Fuc(a1-2)Gal(b1-4)GlcNAc(b1-2)Man(a1-3)[Fuc(a1-2)Gal(b1-4)GlcNAc(b1-2)Man(a1-6)]Man(b1-4)GlcNAc(b1-4)GlcNAc
Method in brief: as §1

[22] = molecular target: Fuc(a1-2)Gal(b1-4)GlcNAc(b1-2)Man(a1-3)[Fuc(a1-2)Gal(b1-4)GlcNAc(b1-2)Man(a1-6)]Man(b1-4)GlcNAc(b1-4)[Fuc(a1-6)]GlcNAc
Method in brief: as §1

[23] = molecular target: Fuc(a1-2)Gal(b1-4)GlcNAc(b1-2)[Fuc(a1-2)Gal(b1-4)GlcNAc(b1-4)]Man(a1-3)[Fuc(a1-2)Gal(b1-4)GlcNAc(b1-2)Man(a1-6)]Man(b1-4)GlcNAc(b1-4)GlcNAc
Method in brief: as §1

[24] = molecular target: Fuc(a1-2)Gal(b1-4)GlcNAc(b1-3)Gal(b1-4)GlcNAc
Method in brief: as §1

[25] = molecular target: Fuc(a1-2)Gal(b1-4)GlcNAc(b1-3)Gal(b1-4)GlcNAc(b1-2)Man(a1-3)[Fuc(a1-2)Gal(b1-4)GlcNAc(b1-3)Gal(b1-4)GlcNAc(b1-2)Man(a1-6)]Man(b1-4)GlcNAc(b1-4)GlcNAc
Method in brief: as §1

[26] = molecular target: Fuc(a1-2)Gal(b1-4)GlcNAc(b1-3)Gal(b1-4)GlcNAc(b1-3)Gal(b1-4)GlcNAc
Method in brief: as §1

[27] = molecular target: Fuc(a1-2)Gal(b1-4)GlcNAc(b1-3)GalNAc
Method in brief: as §1

[28] = molecular target: Fuc(a1-2)Gal(b1-4)GlcNAc(b1-3)[Fuc(a1-2)Gal(b1-4)GlcNAc(b1-6)]GalNAc
Method in brief: as §1

[29] = molecular target: Fuc(a1-2)Gal(b1-4)GlcNAc(b1-3)[Fuc(a1-3)[Gal(b1-4)]GlcNAc(b1-6)]Gal(b1-4)Glc
Method in brief: as §1

[30] = molecular target: Fuc(a1-2)Gal(b1-4)GlcNAc(b1-6)GalNAc
Method in brief: as §1

[31] = molecular target: Fuc(a1-2)Gal(b1-4)GlcNAc6S
Method in brief: as §1

B1: MGL (Homo sapiens), Q8IUN9 (protein)
chain: MTRTYENFQYLENKVKVQGFKNGPLPLQSLLQRLCSGPCHLLLSLGLGLLLLVIICVVGFQNSKFQRDLVTLRTDFSNFTSNTVAEIQALTSQGSSLEETIASLKAEVEGFKQERQAGVSELQEHTTQKAHLGHCPHCPSVCVPVHSEMLLRVQQLVQDLKKLTCQVATLNNNASTEGTCCPVNWVEHQDSCYWFSHSGMSWAEAEKYCQLKNAHLVVINSREEQNFVQKYLGSAYTWMGLSDPEGAWKWVDGTDYATGFQNWKPGQPDDWQGHGLGGGEDCAHFHPDGRWNDDVCQRPYHWVCEAGLGQTSQESH
glycan array binding signal (z-score) (Fuc(a1-2)Gal): -0.232 | glycan array binding signal (z-score) (Fuc(a1-2)Gal(b1-3)GalNAc): -0.248 | glycan array binding signal (z-score) [1]: -0.246 | glycan array binding signal (z-score) [2]: -0.24 | glycan array binding signal (z-score) [3]: -0.223 | glycan array binding signal (z-score) [4]: -0.242 | glycan array binding signal (z-score) [5]: -0.044 | glycan array binding signal (z-score) (Fuc(a1-2)Gal(b1-3)GlcNAc): -0.251 | glycan array binding signal (z-score) [6]: -0.224 | glycan array binding signal (z-score) [7]: -0.222 | glycan array binding signal (z-score) [8]: -0.251 | glycan array binding signal (z-score) [9]: -0.248 | glycan array binding signal (z-score) [10]: -0.239 | glycan array binding signal (z-score) [11]: -0.248 | glycan array binding signal (z-score) [12]: -0.245 | glycan array binding signal (z-score) [13]: -0.178 | glycan array binding signal (z-score) [14]: -0.244 | glycan array binding signal (z-score) [15]: -0.234 | glycan array binding signal (z-score) [16]: -0.238 | glycan array binding signal (z-score) [17]: -0.245 | glycan array binding signal (z-score) [18]: -0.242 | glycan array binding signal (z-score) [19]: -0.219 | glycan array binding signal (z-score) (Fuc(a1-2)Gal(b1-4)Glc): -0.231 | glycan array binding signal (z-score) (Fuc(a1-2)Gal(b1-4)Glc6S): -0.246 | glycan array binding signal (z-score) (Fuc(a1-2)Gal(b1-4)GlcNAc): -0.247 | glycan array binding signal (z-score) [20]: -0.246 | glycan array binding signal (z-score) [21]: -0.229 | glycan array binding signal (z-score) [22]: -0.209 | glycan array binding signal (z-score) [23]: -0.281 | glycan array binding signal (z-score) [24]: -0.247 | glycan array binding signal (z-score) [25]: -0.238 | glycan array binding signal (z-score) [26]: -0.24 | glycan array binding signal (z-score) [27]: -0.249 | glycan array binding signal (z-score) [28]: -0.212 | glycan array binding signal (z-score) [29]: -0.237 | glycan array binding signal (z-score) [30]: 3.85 | glycan array binding signal (z-score) [31]: -0.256
